Reference: patent US12583836B2 (Anaxis Pharma Pty Ltd, priority 2020, dated 2026)

Columns and labels:
RIP1 = target: T1, RIP1 (Homo sapiens, UniProt Q13546); assay: KINOMEscan binding assay, RIP1; conditions: equilibrium dissociation constant, class symbols
T1 construct: purchased DiscoverX (KINOMEscan service); host or cells: E. coli BL21-derived (T7 phage) or HEK293
T1 sequence (Q13546 1-671): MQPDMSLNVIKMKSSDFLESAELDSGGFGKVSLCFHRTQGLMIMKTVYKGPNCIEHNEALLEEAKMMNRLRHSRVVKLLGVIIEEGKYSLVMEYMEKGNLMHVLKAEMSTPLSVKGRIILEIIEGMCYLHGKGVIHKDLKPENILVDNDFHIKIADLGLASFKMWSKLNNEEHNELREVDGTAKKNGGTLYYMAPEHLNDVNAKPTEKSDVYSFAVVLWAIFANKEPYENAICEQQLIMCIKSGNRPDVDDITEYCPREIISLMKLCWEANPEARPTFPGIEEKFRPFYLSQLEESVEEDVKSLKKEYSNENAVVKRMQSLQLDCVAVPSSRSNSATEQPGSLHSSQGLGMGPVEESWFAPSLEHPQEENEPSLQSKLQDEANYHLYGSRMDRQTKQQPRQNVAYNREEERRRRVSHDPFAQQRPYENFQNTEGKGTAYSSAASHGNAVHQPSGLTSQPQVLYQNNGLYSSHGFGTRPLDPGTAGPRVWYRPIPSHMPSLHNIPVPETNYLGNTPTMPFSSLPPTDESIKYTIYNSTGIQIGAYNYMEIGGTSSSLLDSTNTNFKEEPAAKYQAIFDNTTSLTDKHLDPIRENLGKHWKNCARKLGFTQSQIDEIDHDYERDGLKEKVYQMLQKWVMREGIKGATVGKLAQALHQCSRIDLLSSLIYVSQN

RIP3 = target: T2, RIP3 (Homo sapiens, UniProt Q9Y572); assay: KINOMEscan binding assay, RIP3; conditions: equilibrium dissociation constant, class symbols
T2 construct: purchased DiscoverX (KINOMEscan service); host or cells: E. coli BL21-derived (T7 phage) or HEK293
Description: The Hill Slope was set to −1.

T2 sequence (Q9Y572 whole entry): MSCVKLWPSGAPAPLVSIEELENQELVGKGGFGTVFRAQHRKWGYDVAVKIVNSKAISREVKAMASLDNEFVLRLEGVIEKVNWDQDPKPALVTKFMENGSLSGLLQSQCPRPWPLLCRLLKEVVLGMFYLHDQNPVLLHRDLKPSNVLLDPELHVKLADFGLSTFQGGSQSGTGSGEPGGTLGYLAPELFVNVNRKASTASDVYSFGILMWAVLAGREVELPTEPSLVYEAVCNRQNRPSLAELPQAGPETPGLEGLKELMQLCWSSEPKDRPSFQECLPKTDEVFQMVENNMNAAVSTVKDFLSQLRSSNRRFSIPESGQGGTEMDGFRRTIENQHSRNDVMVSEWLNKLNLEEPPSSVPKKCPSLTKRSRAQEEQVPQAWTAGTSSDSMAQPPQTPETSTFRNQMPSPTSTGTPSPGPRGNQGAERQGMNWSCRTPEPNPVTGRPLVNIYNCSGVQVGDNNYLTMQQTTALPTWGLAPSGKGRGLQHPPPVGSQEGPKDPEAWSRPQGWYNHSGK

- Kd (RIP1): > 30 µM
- Kd (RIP3): > 30 µM
SMILES: CCC(Oc1cc(-c2n[nH]c(Nc3cnccn3)c2C(N)=O)ccc1NS(=O)(=O)CC(F)(F)F)c1ccc(F)cc1 (racemic) [Compound 263, 3-(3-(1-(4-fluorophenyl)propoxy)-4-(2,2,2-trifluoroethylsulfonamido)phenyl)-5-(pyrazin-2-ylamino)-1H-pyrazole-4-carboxamide]
